“And” between values parts separate entries of the source, which are not always exact repeats. Equal values may be shown once. The whole screen tested about 220,000 compounds, of which about 5,700 (2.6%) were called active. The shares of active, inactive and inconclusive entries below differ from those in the screen. Calls follow the shape of the dose curve; as a rule, active = well fitted inhibition curve with a large enough effect; inconclusive = small, poorly fitted or top-dose-only effect; inactive = no such curve, though single readings can be large or run the other way. Potencies beside an inconclusive call are fits to weak or partial responses and may not hold up.
Each molecule was assayed against Lysine-specific demethylase 5B (Homo sapiens) (UniProt Q9UGL1) (assay: Primary screen for KDM5B Histone Demethylases FDH-coupled qHTS). Settings: FDH-coupled NADH fluorescence (FDH is formaldehyde dehydrogenase); activity change, negative = inhibition: at 57.7 µM (top of the series) unless noted.
How it was run: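 Inhibition is measured as reduced NADH fluorescence generation from FDH coupling to formaldehyde release. Truncated KDM5BΔAP at 200 nM final acts on H3K4me3 peptide (12.5 µM in substrate mix) in pH 7.5 HEPES buffer with Tween-20, 30 min, room temperature.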
Also: nearly all actives have a fitted effect of over 70% in size.
For activity change, negative = inhibition in this document: 0% is about no effect.
Potency is read from the fitted curve at half-maximal effect; tags tell the direction and shape of the fitted curve.

UniProt Q9UGL1, sequence (Q9UGL1 whole entry, looked up, the tested form may be a part): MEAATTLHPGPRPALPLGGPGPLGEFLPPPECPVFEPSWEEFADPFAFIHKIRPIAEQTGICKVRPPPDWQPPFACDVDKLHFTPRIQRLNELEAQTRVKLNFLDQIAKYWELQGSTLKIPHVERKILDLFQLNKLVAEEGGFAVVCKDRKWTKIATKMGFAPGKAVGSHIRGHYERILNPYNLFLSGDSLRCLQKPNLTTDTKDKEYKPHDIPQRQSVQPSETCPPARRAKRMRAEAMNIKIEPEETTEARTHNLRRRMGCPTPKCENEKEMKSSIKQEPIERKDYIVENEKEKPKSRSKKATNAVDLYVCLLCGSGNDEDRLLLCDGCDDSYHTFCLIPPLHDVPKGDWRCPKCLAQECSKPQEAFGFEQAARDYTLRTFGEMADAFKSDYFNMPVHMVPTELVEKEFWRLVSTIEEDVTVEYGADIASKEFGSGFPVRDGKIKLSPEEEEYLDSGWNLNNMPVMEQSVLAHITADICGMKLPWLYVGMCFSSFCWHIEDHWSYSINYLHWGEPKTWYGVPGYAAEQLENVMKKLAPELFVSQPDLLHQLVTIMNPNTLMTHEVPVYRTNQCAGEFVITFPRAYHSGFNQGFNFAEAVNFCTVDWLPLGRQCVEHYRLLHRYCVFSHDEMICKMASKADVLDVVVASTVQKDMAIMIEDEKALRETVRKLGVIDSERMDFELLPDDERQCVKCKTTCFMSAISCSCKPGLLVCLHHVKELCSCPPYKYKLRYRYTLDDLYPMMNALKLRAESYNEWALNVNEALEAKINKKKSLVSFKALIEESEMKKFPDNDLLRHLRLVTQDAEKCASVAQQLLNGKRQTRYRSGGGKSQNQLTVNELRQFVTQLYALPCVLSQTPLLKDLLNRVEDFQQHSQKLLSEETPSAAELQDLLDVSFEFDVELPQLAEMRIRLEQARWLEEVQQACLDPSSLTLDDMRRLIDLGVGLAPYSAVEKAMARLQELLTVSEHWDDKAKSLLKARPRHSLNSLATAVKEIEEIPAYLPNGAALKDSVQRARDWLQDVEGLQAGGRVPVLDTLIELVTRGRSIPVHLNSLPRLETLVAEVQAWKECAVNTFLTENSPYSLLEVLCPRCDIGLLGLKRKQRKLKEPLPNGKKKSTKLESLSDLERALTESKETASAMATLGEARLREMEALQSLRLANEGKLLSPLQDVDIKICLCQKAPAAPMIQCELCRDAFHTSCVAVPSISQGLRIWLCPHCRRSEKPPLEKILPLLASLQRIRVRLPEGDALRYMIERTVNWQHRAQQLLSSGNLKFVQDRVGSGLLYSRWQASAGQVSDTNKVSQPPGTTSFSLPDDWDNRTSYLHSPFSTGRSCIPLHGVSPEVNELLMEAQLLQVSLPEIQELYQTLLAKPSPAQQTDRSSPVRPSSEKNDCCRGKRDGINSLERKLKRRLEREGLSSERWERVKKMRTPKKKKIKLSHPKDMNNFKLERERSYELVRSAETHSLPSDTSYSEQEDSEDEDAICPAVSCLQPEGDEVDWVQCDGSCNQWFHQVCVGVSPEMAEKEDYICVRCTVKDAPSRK

Row | Compound | Potency | activity change, negative = inhibition
1 | COc1ccccc1C(=O)NCc1nnc2c(-c3nc(C4CC4)no3)cccn12 | inconclusive: 31.6 µM [inhibitor, single point] | –
2 | Cc1noc(C)c1-c1cc2c(cc(-c3ccccc3)n2C)c(Nc2ccncn2)n1 | active: 35.5 µM | –
3 | CSc1ccc(CCNC(=O)c2ccc(-n3c(C)cc4c3CCCC4)cc2)cc1 | inconclusive: 8.91 µM [inhibitor, partial curve, poor fit] | –
4 | COc1cccc(-c2cc(-c3ccc(=O)[nH]c3)c3cncn3c2)c1 | inconclusive: 2 µM [inhibitor, full curve, poor fit] | –
5 | COc1cc(C)c2c(c1C)C[C@H](C(C)C(=O)NCc1ccco1)CC2 (some centres not stated) | active: 35.5 µM | –
6 | COc1ccc(CN2Cc3[nH]cnc3C[C@H]2c2nc(-c3ccc(C(F)(F)F)cc3)no2)cc1 | inconclusive: 14.1 µM [inhibitor, partial curve] | –
7 | CC(C)Oc1ccc(-c2cc(C(=O)O)c3ccccc3n2)cc1 | inconclusive: 20 µM [inhibitor, partial curve, poor fit] | –
8 | CCN(CC)c1ccc(NC(=O)c2cc(S(N)(=O)=O)ccc2C)cc1 | inactive | –
9 | Cc1oc2c(c1C(=O)NCCN1CCCC1)CN(Cc1ccc(F)cc1)CC2 | inconclusive: 20 µM [inhibitor, partial curve, poor fit] | –
10 | NC(=O)CN1CCC(NC(=O)c2ccc(Oc3ccccc3)cc2)CC1 | inactive | –
11 | CC(=O)N1CCC(N2C[C@@H](F)[C@@H](OCc3nc4cc(C)c(C)cc4[nH]3)C2)CC1 | inconclusive: 31.6 µM [inhibitor, partial curve, poor fit] | –
12 | Fc1cccc(Nc2ncc(-c3cccnc3)c3c2OCC3)c1 | active: 31.6 µM | –
13 | COCCCN1CC2(CCN(CC(=O)N3CCNCC3)CC2)CC1=O | inactive | –
14 | COc1ccc(/C=C/c2nc(C#N)c(N3CCC(C)CC3)o2)cc1OC | inconclusive: 17.8 µM [inhibitor, partial curve, poor fit] | –
15 | COc1ccc(Nc2ncc3c(n2)CCN(Cc2ccc(Br)s2)C3)c(OC)c1 | inconclusive: 25.1 µM [inhibitor, partial curve, poor fit] | –
16 | Fc1ccc(-c2csc(NCc3ccco3)n2)cc1F | inconclusive: 39.8 µM [inhibitor, partial curve, poor fit] | –
17 | NC(=O)c1cc(Cl)ccc1OCc1ccc(OC(F)(F)F)cc1 | inactive | –
18 | COc1ccc(NN=Nc2nc3c([nH]2)c(=O)n(C)c(=O)n3C)cc1 | inconclusive: 14.1 µM [inhibitor, partial curve, poor fit] | –
19 | O=C(Cc1ccsc1)N1CCC(Nc2cccnc2)C1 (configuration not stated) | inactive | –
20 | Cc1ccc(Cl)cc1NC(=O)c1cc(S(=O)(=O)N2CCCCCC2)cn1C | inconclusive: 35.5 µM [inhibitor, single point] | –
21 | Cc1cccc(-c2nc(CSCC(=O)N3CCN(c4cccc(C)c4C)CC3)c(C)o2)c1 | inconclusive: 25.1 µM [inhibitor, single point] | –
22 | Fc1ccc(C2Cn3nnc(-c4nc(-c5ccc6c(c5)OCO6)no4)c3CO2)cc1 (configuration not stated) | inactive | –
23 | Cn1c(SCc2csc(-c3ccc4c(c3)OCO4)n2)nnc1C1CCCCC1 | inconclusive: 28.2 µM [inhibitor, partial curve, poor fit] | –

Row | Compound | Potency | activity change, negative = inhibition
24 | CC(=O)c1cccc(OCc2ccc(C(N)=O)cc2)c1 | inactive | –
25 | Cc1ccc(NC(=O)/C(C#N)=C\c2ccccc2OC(F)F)c(C)c1 | inconclusive: 22.4 µM [inhibitor, single point] | –
26 | CCC(C(=O)Nc1ccc2c(c1)CN(Cc1ccccc1OC)C(=O)C(C)O2)c1ccccc1 (configuration not stated) | inactive | –
27 | Cc1ccc(-c2nc(Nc3ccc(O)cc3)c3ccccc3n2)cc1 | inconclusive: 39.8 µM [inhibitor, partial curve, poor fit] and inconclusive: 25.1 µM [inhibitor, single point] | –
28 | COc1cc(CN(C(=O)COc2ccc(Cl)c(C)c2)c2ccccn2)cc(OC)c1OC | inconclusive: 15.8 µM [inhibitor, partial curve, poor fit] | –
29 | COc1cc(Br)c(/C=C/C(=O)O)cc1OC | inconclusive: 39.8 µM [inhibitor, single point] | –
30 | O=C(NC1CCCc2c1[nH]c1ccccc21)c1cccnc1 (configuration not stated) | inconclusive: 11.2 µM [inhibitor, partial curve] | –
31 | Cc1nnc2n1CCC(NC(=O)c1cccn1C)CC2 (configuration not stated) | active: 20 µM | –
32 | O=C(COc1cc(OCC(=O)N2CCNC2=O)c(Cl)cc1Cl)N1CCNC1=O | inactive | –
33 | CN(C)CCOc1cccc2c1c(NC(=O)c1ccn[nH]1)nn2-c1ccc(F)cc1 | inconclusive: 22.4 µM [inhibitor, partial curve, poor fit] | –
34 | Cc1cccc(OCC2(CNC(=O)C3CCOCC3)C[C@@H](O)[C@@H](O)C2)n1 (some centres not stated) | inconclusive: 22.4 µM [inhibitor, partial curve] | –
35 | CC1CS(=O)(=O)N(c2ccc(S(=O)(=O)NCc3cccnc3)cc2)C1=O (configuration not stated) | inactive | –
36 | CCn1nc(C(=O)OCC(=O)Nc2nc(-c3ccc(C)c(C)c3)cs2)c2ccccc2c1=O | inactive | –
37 | C=CCCC(CN1CCOCC1)Oc1ccc(Cn2ccnc2)cn1 (configuration not stated) | inactive | –
38 | O=C(Nc1cc(Cl)cc(Cl)c1)c1ccc(F)c(S(=O)(=O)NCc2ccccc2Cl)c1 | inconclusive: 44.7 µM [inhibitor, single point] | –
39 | CCN(c1ccccc1)S(=O)(=O)c1nnc(NC(=O)c2ccco2)s1 | – | inconclusive: -42.6% [inhibitor]
40 | CN(C)CCCC(=O)NC[C@@H]1CC[C@H]2C[C@@H]1C2(C)C | inactive | –
41 | CC(C)(C(=O)O)c1cnc(N2CCC(O)(CO)CC2)nc1N1CCOCC1 | inactive | –
42 | COc1ccc(-c2nc3scc(CCNC(=O)Cc4ccc(F)cc4)n3n2)cc1 | inactive | –
43 | C[S+](=O)([O-])N1CCC(Cn2ccc3c(N4CCOCC4)nc(-c4cncnc4)cc32)CC1 | inconclusive: 31.6 µM [inhibitor, partial curve, poor fit] | –
44 | COc1cc(/C=N/O)cc(Cl)c1OC(C)=O | inactive | –
45 | COc1ccccc1CN1CCCn2nc(C)c(-c3cnccc3C)c21 | inconclusive: 25.1 µM [inhibitor, partial curve, poor fit] | –
46 | CCOC(=O)CCS(=O)(=O)c1nc(-c2ccccc2)cc(C(F)(F)F)n1 | inconclusive: 22.4 µM [inhibitor, single point] | –

Row | Compound | Potency | activity change, negative = inhibition
47 | FC(F)(F)c1cccc(C2=NOC3(CCN(Cc4ccsc4)C3)C2)c1 (configuration not stated) | inconclusive: 50.1 µM [inhibitor, partial curve] | –
48 | CC1(C(=O)Nc2ncc(Cc3ccc(Br)cc3)s2)Cc2ccccc2C(=O)O1 (configuration not stated) | inconclusive: 1.41 µM [inhibitor, partial curve, poor fit] | –
49 | O=C1CCC(CNC(=O)c2nc(-c3ccccc3)cc3[nH]ccc23)N1 (configuration not stated) | active: 31.6 µM | –
50 | COc1ccc(-c2noc([C@@H]3CCCN3C(=O)Cc3ccccc3)n2)cc1 | inactive | –
51 | COC(=O)C(CCSC)NC(=O)c1cc2c(n(-c3ccc(OC)cc3)c1=O)CC(C)(C)CC2=O (configuration not stated) | inconclusive: 25.1 µM [inhibitor, single point] | –
52 | CCCCn1c(=O)[nH]c(=O)c2c1nc(COC(=O)C1(C#N)CCCC1)n2C | inconclusive: 25.1 µM [inhibitor, single point] | –
53 | Cc1cnc(-c2cccnc2)n1CCN | inconclusive: 20 µM [inhibitor, partial curve, poor fit] | –
54 | CCOc1ncccc1C(=O)OCC(=O)c1ccccc1Br | inconclusive: 2.82 µM [inhibitor, full curve, poor fit] | –
55 | Cc1nn(C(=O)CCC(=O)N2CCC(CCOc3ccccc3F)C2)c2ccccc12 (configuration not stated) | inconclusive: 20 µM [inhibitor, partial curve, poor fit] | –
56 | COc1cc(OC)c(NC(=O)c2c3c(nn2C)-c2ccccc2SC3)cc1Cl | inconclusive: 31.6 µM [inhibitor, partial curve, poor fit] | –
57 | O=C(O)CCCNC(=O)Cn1ccc2ccc(Cl)cc21 | inactive | –
58 | CCS(=O)(=O)c1nc(-c2ccc(Cl)cc2)cc(C(F)(F)F)n1 | inconclusive: 39.8 µM [inhibitor, single point] | –
59 | Cc1ccn2c(=O)c(C(=O)NCc3ccccc3Cl)c(O)nc2c1 | inconclusive: 25.1 µM [inhibitor, partial curve, poor fit] | –
60 | COc1cc(C)c(CN2CCN(c3ncccn3)CC2)cc1C | inconclusive: 11.2 µM [inhibitor, partial curve, poor fit] | –
61 | COc1cc(OC)cc(-c2onc(C)c2C(=O)NC(C)CCc2ccccc2)c1 (configuration not stated) | inconclusive: 39.8 µM [inhibitor, single point] | –
62 | COCCN1CC(CO)C2(CCN(C(=O)CCn3cc(C)cn3)CC2)C1 (configuration not stated) | inconclusive: 20 µM [inhibitor, single point] | –
63 | Cn1cc(CN2CCOCCNC(=O)CC2)c2ccccc21 | inconclusive: 22.4 µM [inhibitor, partial curve, poor fit] | –
64 | COc1ccccc1Nc1c2c(nc3ccc(NC(=O)c4cccc(F)c4)cc13)CCCC2 | inconclusive: 7.08 µM [inhibitor, partial curve, poor fit] | –
65 | CCc1nc2c(c(-c3ccc(OC)cc3)n1)CN([S+](=O)([O-])c1c(C)noc1C)CC2 | inconclusive: 79.4 µM [inhibitor, partial curve] | –
66 | O=C(NCc1ccccc1C(F)(F)F)C1CCCN(c2cnn(Cc3ccccc3)c(=O)c2)C1 (configuration not stated) | inactive | –
67 | CC(C#N)CN(C)C(=O)Cc1coc(-c2ccccc2)n1 (configuration not stated) | inactive | –

— PubChem BioAssay AID1347165 (National Center for Advancing Translational Sciences (NCATS), 2019)
